Experimental data from the RNAGym collection of RNA variant scans (doi:10.7554/elife.90254).
Read counts are not given, so values of variants with three or more changes are uncertain.

B1: LINE1-mini (parent)
chain: GGCAGAGCUCAACACAGCGUGGCAAAGUGGCUGUGGCUAGACUGCC

Variants of: B1
Assay: self-cleavage, relative activity (ratio to wild type); higher = more cleavage; in vitro, sequencing; the parent is a self-cleaving ribozyme

Variant | self-cleavage
A16G G33U C37A | 0
G2U U9G U38C A41G | 0.04
C13U A16G C31U | 0.03
C13A A26C C31A U32C | 0.15
C3A C8A U9G U28G G44U | 0.03
A11U A25G U32A G44U | 0.02
G19A G33U C42U | 0.08
G1U A12G A39G | 0.01
C15U C23A G33U | 0.38
G17C C18A A39C | 0.08
G1U G7U C10A A16G C31U | 0
C3U A14C C18U G36A A41U | 0.27
A14C A26G G29U U32G | 0.02
C15A G17U C23U G27U G36A C46G | 0.01
G7A C8G C10A G40A | 0.07
G1U A4U U9A G22U G29U | 0.09
G2A G7C G29A | 0.25
A16G G35U C37A | 0.05
G2U A4C A14G G19A U32G | 0.02
G2C C3U A14U G22C A39G | 0.03
G1U G21A A39G | 0.06

Variant | self-cleavage
G2U A14U A41U | 0.04
A25G G33U C37G | 0.02
U9C C13U C45G | 0.04
U9G A16C G19A G40A U43A G44A | 0.07
A12U C15U G19C | 0.44
G1U G22C C37G | 0
C3U A26U A39G G40A U43G G44A | 0.01
G22U C23U G29C | 0.25
G1U C8U C10A A14G U32G G36A | 0.01
G17A C18A G21C C31A C37U | 0.02
G27A U38C G40A C42U | 0.08
A6C G7C A12U C13A G17C C23G | 0.06
G1C G21U C37G | 0.03
C10A C13A A16U U20A G21A A25U | 0.03
G7C G27U A39U | 0.04
U34A G40U G44U | 0.06
G5U U9C G27A | 0
G1A C3U A4U G7U | 0.54
G1A U20G G27A G29U | 0.9
U9G C23G G44A | 0.02
A6C G22U U28A C46U | 0.98

Variant | self-cleavage
A6G A26G U28G | 0.1
G5A C23U U32A G35C C37U G40C | 0.05
A11G A12U G21U | 0.02
C13U C45U C46A | 0.02
C18A A25C U32A | 0.05
G21U C23G A25G G44C | 0.1
G7U G19A G36A C42G | 0.04
G22C A24G G33C | 0.05
G5U A6G C13U G21C C42U C46A | 0.07
G2U G17C C18G G40U C42G G44A | 0
G1U A4G G7A C18G A41C | 0.06
G2A C3U G19A G30A | 0.73
A4G G17C G36A | 0.22
G5A A12C G29U | 0.07
G21U G29C C31G G44U | 0.07
G5A C8U G21C G36A | 0.31
A11U U28G G29A | 0.04
A4G C10A C13U C18A G22U G30C G35A | 0.02
A6G C13U C31G | 0.01
A16C G19A U38A | 0.05
C3A G5A U32A | 0.08

Variant | self-cleavage
G7A U9G U32C A41G | 0.02
C8U C18G C37U U38C G40A | 0.01
U9A G19A G21A | 0.16
G7U U32G G35U U38G A41U | 0.01
G1U U9G A14G C15G U32C U34C C45G | 0
G2C A14U C15A G40A | 0.01
C8A C10U A11C A26G C37A A39G | 0.01
G7U C8G U9A C18U G30A A39G | 0.01
A16G G19U C46G | 0.54
G17C A24U U28C G36C A41G | 0.05
G17U G29C U32A | 0.37
C3U A26C A39C U43A | 0.1
A6U C13G U20G G30A | 0.19
G7C A16C G17U | 0.09
C10A G19A G29U C31U | 0.02
A16G A25G G30A | 0.16
A12C G27U G33U C37U | 0
A14C C15A A24U | 0.15
G2C G19A G27A G35U C37A | 0.71
C3G A11G G27U G33U G35C A39G | 0.02
C13A A25C C31U | 0.12
